# Experimental data reported in publication PMC4336329 (PLoS ONE, 2015).
# Hit rate of the full screen: of about 310,000 compounds, about 14,000 (4.5%) showed an effect of 50% or more. The effect is printed as a negative number. The list shows a part of the results.
# Target: human ether-à-go-go-related gene (hERG) potassium channel (human, UniProt Q12809)
# Test: primary screen, population patch clamp on CHO cells stably expressing hERG
# 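Also: peak tail current of the secondary pulse compared with the same well before compound.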
# Chain of human ether-à-go-go-related gene (hERG) potassium channel (Q12809 whole entry, looked up): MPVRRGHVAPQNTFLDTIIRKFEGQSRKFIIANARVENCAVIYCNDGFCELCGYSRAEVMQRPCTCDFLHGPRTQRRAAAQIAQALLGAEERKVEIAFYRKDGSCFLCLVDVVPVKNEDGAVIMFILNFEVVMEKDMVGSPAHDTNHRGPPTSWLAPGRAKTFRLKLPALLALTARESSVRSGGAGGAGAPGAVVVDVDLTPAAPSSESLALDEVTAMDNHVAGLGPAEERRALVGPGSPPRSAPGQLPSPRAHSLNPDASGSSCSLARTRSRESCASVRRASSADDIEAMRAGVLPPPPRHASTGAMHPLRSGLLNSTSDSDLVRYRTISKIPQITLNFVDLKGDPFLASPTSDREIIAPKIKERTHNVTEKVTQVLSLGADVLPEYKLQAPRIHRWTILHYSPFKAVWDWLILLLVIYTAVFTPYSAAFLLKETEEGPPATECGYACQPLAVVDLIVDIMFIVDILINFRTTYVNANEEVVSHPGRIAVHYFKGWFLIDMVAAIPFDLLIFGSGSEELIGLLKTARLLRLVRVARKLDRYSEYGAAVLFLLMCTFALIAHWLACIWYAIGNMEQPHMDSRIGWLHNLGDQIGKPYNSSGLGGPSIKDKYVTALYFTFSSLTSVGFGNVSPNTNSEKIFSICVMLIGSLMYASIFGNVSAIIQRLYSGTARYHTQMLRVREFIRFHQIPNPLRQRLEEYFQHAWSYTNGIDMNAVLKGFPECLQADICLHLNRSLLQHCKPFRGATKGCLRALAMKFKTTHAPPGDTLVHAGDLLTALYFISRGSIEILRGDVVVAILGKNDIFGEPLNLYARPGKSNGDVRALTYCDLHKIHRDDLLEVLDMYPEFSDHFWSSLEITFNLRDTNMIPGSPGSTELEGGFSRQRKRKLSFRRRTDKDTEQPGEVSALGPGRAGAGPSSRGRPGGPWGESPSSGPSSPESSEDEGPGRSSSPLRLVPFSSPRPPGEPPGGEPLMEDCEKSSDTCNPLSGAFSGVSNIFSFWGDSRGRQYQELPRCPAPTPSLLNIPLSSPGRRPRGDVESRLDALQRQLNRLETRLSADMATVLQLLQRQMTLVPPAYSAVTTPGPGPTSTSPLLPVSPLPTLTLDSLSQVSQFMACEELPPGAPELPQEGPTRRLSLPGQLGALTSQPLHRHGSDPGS
row,SMILES,"hERG current change (%, negative = inhibition) at 10uM [%]"
1,CCCNC(=S)Nc1ccc(CC(=O)OC)cc1,3.54
2,COc1ccc(CCNC(=O)CCCc2nnc3n(C)c(=O)c4sccc4n23)cc1OC,19.4
3,O=C(NCc1ccccc1Cl)c1csc2c1CCCCC2,20.1
4,CCSc1cc(N2CCCC2)nc(-c2ccccc2)n1,11.6
5,CCN(C(=O)COC(=O)C1CC1)c1c(N)n(Cc2ccccc2)c(=O)[nH]c1=O,-14.5
6,O=C(c1ccc(NS(=O)(=O)c2cccc([N+](=O)[O-])c2)cc1)N1CCN(C(=O)c2ccco2)CC1,-15.3
7,CC1(C)CC(=O)C=C(NCCc2c[nH]c3ccccc23)C1,-12.1
8,COc1ccc(NC(=O)CSc2nc3nc(C)cc(C)c3c(=O)[nH]2)cc1,16.7
9,CC(=O)C(=Nc1cccc(Cl)c1)NNc1ccccc1C,8.82
10,CCc1ccc(NS(=O)(=O)c2c(C)nc3sc(CC)nn3c2=O)cc1,-9.17
11,CCCN(C(=O)c1ccc(-n2cncn2)c([N+](=O)[O-])c1)C1CCS(=O)(=O)C1 (stereo not drawn),1.56
12,O=C(CCCN1C(=O)c2cccc3cccc(c23)C1=O)Nc1ccon1,9.73
13,Cc1ccc(NC(=O)C(c2ccccc2)N2CCN(CC(=O)N3CCOCC3)CC2)cc1Cl (stereo not drawn),-67.4
14,CCc1oc(C(=O)OC)cc1CSC(=N)N.Cl,12
15,O=C(Nc1ccc(N2CCN(C(=O)c3ccco3)CC2)c(Cl)c1)c1cccs1,-21.8
16,O=S(=O)(NCCc1csc(-c2cccnc2)n1)c1ccc2c(c1)OCCO2,-3.79
17,COc1ccccc1N1CCN(CC(=O)c2c(C)n(C)c3ccccc23)CC1,-24.1
18,O=C(CSc1nc(-c2ccccc2)ns1)N1CCOCC1,13
19,CN(C)CCC(=O)N1c2ccccc2Sc2ccc(C(F)(F)F)cc21.O=C(O)/C=C/C(=O)O,-9.9
20,Cc1cc(C(=O)Cn2nc(C(=O)O)c3ccccc3c2=O)c(C)n1CC(F)(F)F,13.7
21,COc1cc(OC)cc(C(=O)NNC(=O)c2cc3ccccc3cc2O)c1,11.6
22,Cc1cc(S(=O)(=O)N2CCN(C(=O)c3ccco3)CC2)ccc1F,-1.73

row,SMILES,"hERG current change (%, negative = inhibition) at 10uM [%]"
1,CSCCNC(=O)c1ccc(OC2CCN(CCc3ccccc3)CC2)cc1,-64.6
2,Cc1ccc(C)c(S(=O)(=O)N2CCCC2CNC(=O)C(=O)NCC2CCCO2)c1 (stereo not drawn),-15.5
3,COc1ccc(C(=O)/C=C/Nc2ccccn2)c(OC)c1,13.2
4,CCn1c(=S)sc2c(=O)n(CC(=O)Nc3cccc(Br)c3)c(C)nc21,10.2
5,Cc1ccccc1Nc1nc(N)nc(CN2CCN(c3ccccn3)CC2)n1,-66.6
6,Cc1cc(C(=O)N2CCN(c3ncccc3C#N)CC2)no1,-0.539
7,Cc1ccc2c(=O)[nH]c(Nc3nc(C)cc(-c4ccccc4)n3)nc2c1,5.59
8,CCOC(=O)C(=O)N1CCN(c2nc(-c3ccc(Cl)cc3)cs2)CC1,-7.23
9,CS(=O)(=O)N(CC(=O)NCCSc1ccccn1)c1cccc2ccccc12,-9.92
10,CCOC(=O)c1nn(-c2ccc(Cl)cc2)c(=O)c(C#N)c1C,5.94
11,O=c1c2cc(Br)ccc2[nH]c(=S)n1Cc1ccccn1,12.7
12,CN(C)C(=O)[C@@H]1C[C@H]1[C@@H](NC(=O)OCc1ccccc1)c1ccccc1,-64.2
13,CN(C)S(=O)(=O)c1cccc(NC(=O)CN2C(=O)C3C4C=CC(C4)C3C2=O)c1 (stereo not drawn),12.8
14,O=C(CCC(=O)N1CCOCC1)NCc1cccc(C(F)(F)F)c1,-0.171
15,CC1CN(Cc2c(O)ccc3c(=O)c(-c4ccccc4)coc23)CC(C)O1.Cl (stereo not drawn),-6.52
16,COc1cnn(-c2ccc(C)cc2)c(=O)c1SCc1ccccc1,-20.9
17,CCOC(=O)c1c(-c2ccc(OC)cc2)csc1/N=C/C1C(=O)CCCC1=O,2.18
18,Cc1cc(C)cc(NC(=O)Cn2c(-c3ccccc3Cl)nc3ccccc32)c1,5.5
19,COc1cccc2[nH]c3c(N4CCc5ccccc5C4)ncnc3c12,4.69
20,COc1ccccc1C1NC(=O)NC(C)=C1C(=O)OC1CCC(C)CC1 (stereo not drawn),17
21,CCOc1ccccc1NC(=O)/C(C#N)=C/c1c(C)nn(-c2ccccc2)c1Cl,-3.07
22,CN(C)c1ccc(C2N(c3ccc(F)cc3)C(=O)C3CCCN32)cc1 (stereo not drawn),8.36

row,SMILES,"hERG current change (%, negative = inhibition) at 10uM [%]"
1,O=C(Nc1ccc(Cl)c(Cl)c1)c1ccc(Cn2c(=O)[nH]c3ccsc3c2=O)cc1,19.4
2,Cc1ccccc1CSc1nnc(-c2ccncc2)o1,-28.6
3,COc1ccccc1N(CN1CCCC1=O)C(=O)c1ccccc1F,-8.74
4,CN1/C(=C\C(=O)COC(=O)c2ccc([N+](=O)[O-])o2)C(C)(C)c2ccccc21,13.8
5,O=[N+]([O-])c1ccc(NCCCN2CCOCC2)nc1,-29.8
6,CCCCc1ccc(NC(=S)N2CCN(C(=O)OCC)CC2)cc1,0.129
7,CC(=O)N(C)C1=C(N2CCOCC2)C(=O)c2ccccc2C1=O,-6.15
8,CCn1nc(C(=O)OCC(=O)NCCN2C(=O)CSC2=O)c2ccccc2c1=O,-0.515
9,CC(CCc1ccccc1)NC(=O)C(=O)N1CCOCC1 (stereo not drawn),19.8
10,CCCC(=O)Nc1nc2nc(-c3ccccc3)cc(-c3ccccc3)n2n1,8.16
11,CN(CCCC(=O)O)S(=O)(=O)c1ccc2c(c1)C(=O)c1cc(S(=O)(=O)N(C)CCCC(=O)O)ccc1-2,19.8
12,COc1ccccc1CC(=O)Nc1cccc2ccccc12,13.1
13,COc1cccc2cc(C(=O)NCc3ccc(C)cc3)c(=O)oc12,26.3
14,O=C(CNC(=O)N1CC(=O)Nc2ccccc21)Nc1ccc(Cl)cc1,24.4
15,CN(C)c1nc(Nc2ccccc2)nc(N(C)C)n1,8.3
16,Cc1ccc(C)c(S(=O)(=O)N2CCCOC2CNC(=O)C(=O)NCc2cccs2)c1 (stereo not drawn),-6.85
17,Cc1cc2c(c(=O)n1Cc1ccco1)C(c1cccnc1)C(C#N)=C(N)O2 (stereo not drawn),-4.79
18,Cn1c(=O)c(C(=O)NCc2ccc(Cl)cc2)c(O)c2ccccc21,13.4
19,Cc1ccc(S(=O)(=O)N2CCCCC2)cc1NC(=O)c1ccc2c(c1)OCO2,6.09
20,CCOc1ccc2sc(NS(=O)(=O)c3ccc(OC)c(OC)c3)nc2c1,10.2
21,CCCc1cc(=O)n2[nH]cnc2n1,-18.8
22,Cc1ccccc1C(=O)N/N=C/c1ccc([N+](=O)[O-])s1,7.25

row,SMILES,"hERG current change (%, negative = inhibition) at 10uM [%]"
1,CCC[C@H]1COCCS(=O)(=O)N1Cc1ccccc1F,1.68
2,Cc1cc(C(=O)CN2C(=O)C(=O)N(C)C2=O)c(C)n1-c1cccc(S(=O)(=O)N2CCOCC2)c1,-63.4
3,COc1ccccc1OCC(=O)Nc1ccccc1C(=O)NC1CC1,-8.86
4,CCC(COC(=O)c1cc(OC)c(OC)c(OC)c1)(c1ccccc1)N(C)C.O=C(O)/C=C\C(=O)O (stereo not drawn),-13.9
5,CS(=O)(=O)N1CCc2cc(C(=O)N3CCCCC3)ccc21,-7.42
6,COc1ccc(C2c3[nH]c4ccccc4c3C[C@H]3C(=O)N(CCCO)CC(=O)N23)cc1OC (stereo partly drawn),10.6
7,CCOc1ccc(NC(=O)C(C)Sc2nccn2C)cc1 (stereo not drawn),6.78
8,CC12CCC(=O)N1C(C(=O)N1CCN(S(=O)(=O)c3ccc(Br)cc3Cl)CC1)CS2 (stereo not drawn),-18
9,CC(=O)Nc1ccc(S(=O)(=O)NNC(=O)CCC(=O)Nc2cc(C)ccc2C)cc1,5.31
10,CC1=C/C(=N\NC(=O)c2ccc(O)cc2)CC1,20.8
11,O=C(NC(=S)NNC(=O)c1ccc(Cl)cc1Cl)c1cccnc1,10.4
12,O=[N+]([O-])c1cc(Br)cc(C=Nc2ccc3c(c2)OCO3)c1O,9.06
13,O=C(Nc1ccc([N+](=O)[O-])c(NC(=O)c2cccnc2)c1)c1cccnc1,-10.9
14,CC1(C(=O)O)CCC(C(=O)Nc2ccc(S(N)(=O)=O)cc2)C1(C)C (stereo not drawn),10.8
15,COc1ccc(S(=O)(=O)NCc2csc(C)n2)cc1,8.86
16,O=C(COC(=O)C1=NN(c2ccccc2)C(=O)CC1)NCc1ccccc1Cl,-17.4
17,OCc1cccc(Nc2ncnc3sc4c(c23)CCCCC4)c1,-19.3
18,CC(C)Cc1ccc(CN2CCCC(NC(=O)CCn3cnnn3)C2)cc1 (stereo not drawn),-46.2
19,O=C1CC(SCCc2nc3ccccc3[nH]2)C(=O)N1c1ccc(Cl)cc1 (stereo not drawn),-33.3
20,CC(=O)Cc1nsc(NC(=O)c2cccs2)n1,14.8
21,Cc1ccc(NS(=O)(=O)c2ccc(C(=O)N3CCCCCCC3)cc2)cc1,8.75
